The RNAGym collection of RNA variant scans (doi:10.7554/elife.90254)
The source gives no read counts; variants with many changes may rest on few reads.

B1: OR4K15 (parent)
chain: GUUAACGGUCAUAGGCCAUGGAAACUAGGAGCACCAUUUCGCUGCCAGUGAAGAAAUGAACAAAGAAAAUCUGGGCCAGGCAGGCAUCAAAAGAAAUAGUCUUGCGCUCAACCAGAAAGUCUGUAAUCAUUUUAAGGGUA

Variants of: B1
Test: self-cleavage, relative activity (ratio to wild type); higher = more cleavage; in vitro, sequencing; the parent is a self-cleaving ribozyme
With G31U A55G A86G U87C the self-cleavage was 0.24. For G31U A62G A78U, the self-cleavage was 0.5. Work on G31U A68G A126G yielded a self-cleavage of 0.54. G31U A68U A92U U130C showed a self-cleavage of 1.06. With G31U U37A A66G the self-cleavage was 0.8. G31U U39A A86G U103C U132C gave a self-cleavage of 1.1. Variant G31U U43A U122C has a self-cleavage of 2.73. Variant G31U U72A A90U A96U U102C U139A has a self-cleavage of 0.59. C32A U38C A92G showed a self-cleavage of 1.85. C32A U57C U100C gave a self-cleavage of 1.7. Variant C32A U70C A91G A116G has a self-cleavage of 0.95. C32G U57C U120C showed a self-cleavage of 0.9. C32U A36G A111G showed a self-cleavage of 0.07. Variant C32U A54U A60G A78G has a self-cleavage of 0.21. For C32U A78G U87A, the self-cleavage was 0.15. C32U A86U G137A showed a self-cleavage of 1.39. Work on C32U A98G U108A A135U yielded a self-cleavage of 0.01. For C32U U38C G48A, the self-cleavage was 1.88. In the case of C32U U39C A90G U102G, the self-cleavage is reported as 1.2. C32U U49C C107U gave a self-cleavage of 0.03. Variant C32U U87C U100C has a self-cleavage of 2.06. With C32U U120C U130C the self-cleavage was 0.48. Work on A33C A52G A92G yielded a self-cleavage of 1.1. Variant A33C A54G A82U has a self-cleavage of 0.38. Work on A33C A56G U57C yielded a self-cleavage of 1.44. For A33C A59U A63G, the self-cleavage was 0.31. Work on A33C A64G U131C yielded a self-cleavage of 1.56. A33C A69G C85U U130C showed a self-cleavage of 0.23. A33C A89G A117G U124C showed a self-cleavage of 1.18. Variant A33C C40U A116G has a self-cleavage of 0.92. Work on A33C G48U A95G yielded a self-cleavage of 2.05. Variant A33C G106U G137A has a self-cleavage of 0.01. A33C U37C A56G gave a self-cleavage of 0.71. Work on A33C U38C A60G A114G yielded a self-cleavage of 0.45. A33C U39C A55G gave a self-cleavage of 1.06. A33C U49C A66G U127C showed a self-cleavage of 1.62. With A33G A36G G48U A82U U87C A110G the self-cleavage was 0.03. A33G A36G G58U A111U showed a self-cleavage of 0.05. With A33G A36U U49G the self-cleavage was 0.52. With A33G A36U U57C A69G U139A the self-cleavage was 0.81. Work on A33G A47C A54G U131C yielded a self-cleavage of 0.52. In the case of A33G A47G A52G A94G U100C U127C, the self-cleavage is reported as 1.06. A33G A47G A92G showed a self-cleavage of 0.25. A33G A47G A95G gave a self-cleavage of 1.63. Variant A33G A47U G138A has a self-cleavage of 0.55. Variant A33G A47U U72A U120C has a self-cleavage of 0.06. Work on A33G A51C A52C yielded a self-cleavage of 0.42. A33G A51G A52U A86G gave a self-cleavage of 0.29. With A33G A51G A60G A69G the self-cleavage was 0.82. In the case of A33G A51G A67U C128U, the self-cleavage is reported as 1.25. In the case of A33G A51G A96G U102C, the self-cleavage is reported as 1.68. A33G A51G U87C showed a self-cleavage of 0.23. With A33G A51G U122C the self-cleavage was 0.18. Variant A33G A51U A55G has a self-cleavage of 0.26. For A33G A51U A64U, the self-cleavage was 1.56. Variant A33G A52G A56G A64G A67U A86G A89C U122C has a self-cleavage of 0. A33G A54G A55G U100A A140G gave a self-cleavage of 0.26. Work on A33G A54G C85U yielded a self-cleavage of 0.62. Work on A33G A54G G79A yielded a self-cleavage of 0.08. For A33G A54U A92U, the self-cleavage was 1.16. Variant A33G A55G A60G has a self-cleavage of 0.23. A33G A55G A78G showed a self-cleavage of 0.08. For A33G A55G A78U A117G, the self-cleavage was 0.13. Variant A33G A55G A98U U108C has a self-cleavage of 0.03. Work on A33G A55G A126G yielded a self-cleavage of 0.97. A33G A55G U72G G84C A92G A95G U120G gave a self-cleavage of 0.09. A33G A56G A68G gave a self-cleavage of 0.68. A33G A56G A68G U72A A78U A92G U133C gave a self-cleavage of 0.08. Work on A33G A56G A90G yielded a self-cleavage of 0.43. A33G A56G A96G showed a self-cleavage of 1.35. With A33G A59G A60G U87C G93U the self-cleavage was 0.82. In the case of A33G A59G A60G U132A, the self-cleavage is reported as 0.12. In the case of A33G A59G A66G A78U A134G, the self-cleavage is reported as 0.14. With A33G A59G A90G A98G U122A A126G the self-cleavage was 0.11. Variant A33G A60G A64G A69G has a self-cleavage of 0.19. A33G A60G A69G U108C A118G showed a self-cleavage of 0.02. Variant A33G A60G A92G U124A A129G has a self-cleavage of 0.21. Variant A33G A62G U70C A78G has a self-cleavage of 0.14. In the case of A33G A62G U103A, the self-cleavage is reported as 0.63. For A33G A62G U132C, the self-cleavage was 0.56. A33G A63G A118U A140U gave a self-cleavage of 0.25. For A33G A63G A129U, the self-cleavage was 1.08. A33G A63G U87C gave a self-cleavage of 0.73.
